Out of some 48,000 compounds screened, about 450 (0.94%) were called active. Roughly 19% stayed inconclusive and do not appear here. Calls come from the whole dose curve; as a rule, active = well fitted inhibition curve with a large enough effect; inconclusive = small, poorly fitted or top-dose-only effect; inactive = no such curve, though single readings can be large or run the other way. The list shows a part of the results.
Test: Primary qHTS for Identification of Small Molecule Inhibitors of Huntingtin Promoter Activity; note: nearly all actives have a fitted effect of over 50% in size
Details: HEK293 HTT promoter firefly luciferase reporter (activity 0% = vehicle and -100% = no light), 24 h; activity change, negative = inhibition: at the top concentration
In short: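 HEK293 cells carrying firefly luciferase reporters were seeded at 2,500 per well in Opti-MEM and cultured for 24 h. They were then treated with compounds at up to 57.5 uM final for 24 h at 37 degrees C before Dual-Glo luminescence readout.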

SMILES	activity change, negative = inhibition
Cc1cccc(-n2c(/C=C/c3cn(C)c4ccccc34)nc3ccccc3c2=O)c1	inactive: -18%
Cc1cc(NC(=O)c2cccn(Cc3cccc(Cl)c3)c2=O)no1	inactive: -8.58%
O=C(O)CCCOc1ccc(Cl)cc1Cl	inactive: 17.3% [at 116 µM]
C[C@]12CCC(=O)C(O)=C1CC[C@@H]1[C@@H]2CC[C@]2(C)C(=O)CC[C@@H]12	inactive: 0.0668%
CC[C@H]1C[C@@H]2C[C@H]3c4[nH]c5ccc(OC)cc5c4CCN(C2)[C@@H]13	inactive: -18% [at 116 µM]
O=C(Nc1ccon1)c1cccn(Cc2ccccc2)c1=O	inactive: -7.05%
OC(O)C(Cl)(Cl)Cl	inactive: 12.6%
CCOP(=S)(OCC)Oc1cc(C)nc(C(C)C)n1	inactive: 10.6%
CNC(C)(C)Cc1ccccc1	inactive: 8.01%
c1ccc(C2CC2)c(OCC2=NCCN2)c1	inactive: 6.78%
C[C@]12CCC(=O)C=C1CC[C@@H]1[C@@H]2CC[C@@]2(C)[C@H]1CC[C@]2(C)O	inactive: -20.5%
CCS(=O)(=O)C(C)(C)S(=O)(=O)CC	inactive: -2.7%
O=c1[nH]c2cc(Cl)ccc2n1C1CCNCC1	inactive: 12.6%
COc1ccc(OCC(=O)N2CCN(Cc3cc(=O)n4nc(-c5ccccc5C)sc4n3)CC2)cc1	inactive: -38.2%
CC(=O)NS(=O)(=O)c1ccc(NC(=O)c2cccn(Cc3ccc(Cl)cc3)c2=O)cc1	inactive: -14.6%
CN(C)CCc1c[nH]c2cccc(OP(=O)(O)O)c12	inactive: -11.4% [at 116 µM]
Cc1cccc(NC(=O)Cn2cc(C(=O)c3ccccc3)c3ccccc32)c1	inactive: -36.5%
CC(=Cc1csc(C)n1)[C@@H]1C[C@H]2O[C@@H]2CCC[C@H](C)[C@@H](O)[C@@H](C)C(=O)C(C)(C)[C@@H](O)CC(=O)O1	inactive: -10.1%
O=C(COc1cccc(Cl)c1)N1CCN(CCc2ccncc2)CC1	inactive: -9.42%
O=S1(=O)N(Cc2ccccc2)CCCN1Cc1cccc(Cl)c1	inactive: -21.4%
Cc1ccc(Cn2cccc(C(=O)Nc3cc([N+](=O)[O-])ccc3C)c2=O)cc1	inactive: 21.1%
CC(C)NCC(O)c1ccc(N)c(C#N)c1 (centres undefined)	inactive: -1.75%

SMILES	activity change, negative = inhibition
CNCC(O)c1ccc(O)cc1 (centres undefined)	inactive
O=C(COc1ccccc1Cl)N1CCN(CCc2ccncc2)CC1	inactive: -17.6%
Cc1cccc(-n2c(/C=C/c3ccccc3O)nc3ccccc3c2=O)c1	inactive: -9.47%
Cc1sc2c(c1C)C(c1ccc(Cl)cc1)=N[C@@H](CC(=O)Nc1ccc(O)cc1)c1nnc(C)n1-2	inactive: 70.6%
CCOC(=O)c1ncn2c1CN(C)C(=O)c1c(I)cccc1-2	inactive: -0.509%
O=C(O)Cc1ccccc1	inactive: -4.03%
Clc1cccc(SC2CCNCC2)n1	inactive: 3.19%
COc1ccc(C(=O)c2c(C)n(CCN3CCOCC3)c3ccccc23)cc1	inactive
c1cc2c(c(N3CCNCC3)c1)OCCO2	inactive: 7.86%
NP(N)(=O)NC(=O)c1ccc(F)cc1	inactive: -2.17%
COc1ccc(Cl)cc1NC(=O)CN1C(=O)CN=C(c2ccccc2)c2cc(Cl)ccc21	inactive: -39.3%
CCCCC1C(=O)NC(=O)N(C2CCCCC2)C1=O (centres undefined)	inactive: -5.73%
CC(C)(C)OC(=O)c1ncn2c1[C@@H]1CCCN1C(=O)c1c(Br)cccc1-2	inactive: -12.6%
CCN(CC)CCOC(=O)C(O)(c1ccccc1)c1ccccc1	inactive: -5.98%
O=c1c2ccccc2nc(/C=C\c2ccccc2F)n1-c1ccc(O)cc1	inactive: -35.8%
C[C@]12CC[C@H]3[C@@H](CCC4=CC(=O)CC[C@@]43C)[C@@H]1CC[C@@H]2C(=O)O	inactive: 0.511%
Cc1c(C(c2ccc(Cl)cc2Cl)c2c(O)c3ccccc3oc2=O)c(=O)n(-c2ccccc2)n1C (centres undefined)	inactive: -27.2%
COc1ccc(C(CN(C)C)C2(O)CCCCC2)cc1 (centres undefined)	inactive
COc1ccc(C(=O)Nc2ccc(Cl)cc2C(=O)c2ccccc2)c(OC)c1	inactive: -24.7%
Cc1ccc(OCC(=O)N2CCN(CCc3ccncc3)CC2)cc1C	inactive: -10.3%
CC1COC2(c3ccccc3Cl)c3cc(Cl)ccc3NC(=O)CN12 (centres undefined)	inactive: -9.42%
Cc1ccc(NC(=O)N(Cc2ccc3c(c2)OCO3)C2CCN(Cc3ccccc3)CC2)cc1F	inactive: -22%

SMILES	activity change, negative = inhibition
C[C@@H]1O[C@@H](O[C@@H]2C=C3CC[C@@H]4[C@H](CC[C@]5(C)[C@@H](c6ccc(=O)oc6)CC[C@]45O)[C@@]3(C)CC2)[C@H](O)[C@H](O)[C@H]1O	inactive: -39.9%
C#CCN(C)[C@H](C)Cc1ccccc1	inactive
O=C(Nc1ccc(Br)cc1)c1cc(Br)cc(Br)c1O	inactive: 25%
c1ccc2c(CN3CCNCC3)cccc2c1	inactive: 1.63%
ClC1=C(Cl)C2(Cl)C(CBr)CC1(Cl)C2(Cl)Cl (centres undefined)	inactive: -3.94%
Cc1ccc(-n2c(/C=C/c3ccc(Br)s3)nc3ccccc3c2=O)cc1C	inactive: -14.8%
CCN(CCO)CCn1c(Cc2ccccc2)nc2c1c(=O)n(C)c(=O)n2C	inactive: 8.84%
C=CCOC(Cn1ccnc1)c1ccc(Cl)cc1Cl (centres undefined)	inactive: -22.7%
CC(=O)Nc1cc([As](=O)(O)O)ccc1O	inactive: 7.96%
C=CCN1CC[C@]23CCCC[C@H]2[C@H]1Cc1ccc(O)cc13	inactive: 0.274%
FC(F)(F)c1cccc(C2=CCN(CCc3ccc4ccccc4c3)CC2)c1	inactive: -4.54%
Cc1nnc(NC(=O)c2cccn(Cc3ccc(Cl)cc3)c2=O)s1	inactive: -4.14%
CC(C)NCC(O)c1ccccc1Cl (centres undefined)	inactive: -4.1%
O=C(Nc1ccccc1-c1ccc(Cl)cc1)c1cccnc1Cl	inactive: -0.754% [at 116 µM]
COc1ccc2c(C(=O)c3ccc(Cl)cc3)c(C)n(CC(=O)O)c2c1	inactive: -15.3%
CCN1C[C@]2(OC(=O)c3ccccc3NC(C)=O)CC[C@H](OC)[C@@]34[C@H]5CC6[C@@H](OC)C[C@](O)(C(C[C@@H]23)[C@@H]14)[C@@]5(O)[C@@H]6OC	inactive: -2.2%
CCC(C(N)=O)N1CCCC1=O (centres undefined)	inactive: 6.1%
CC(=O)N1CC(=O)Nc2ccc(F)cc2C1c1ccccc1 (centres undefined)	inactive: -15.8%
O=S(=O)(O)C(F)(F)C(F)(F)C(F)(F)C(F)(F)F	inactive: 10% [at 116 µM]
CCCCCCCCC(=O)NCc1ccc(O)c(OC)c1	inactive: -5.76%
CCC12CN3CC(CC)(CN(C1)C3c1ccccn1)C2=O (centres undefined)	inactive: -18.9%
COP(=S)(OC)Oc1cc(Cl)c(Cl)cc1Cl	inactive: 8.38%

SMILES	activity change, negative = inhibition
CCCSc1nc2ccccc2c(=O)n1-c1ccccc1OC	inactive: -20.8%
Cc1cc(C)cc(-n2c(=O)[nH]c3ccccc3c2=O)c1	inactive: -10.2%
Nc1ccc([As](=O)(O)O)cc1	inactive: 1.67%
O=C1CC(c2c(F)cccc2Cl)c2c(c3ccccc3oc2=O)O1 (centres undefined)	inactive: 14.1%
CCOP(=O)(NC(C)C)Oc1ccc(SC)c(C)c1 (centres undefined)	inactive: -17.7% [at 116 µM]
CC1OC(C)OC(C)O1 (centres undefined)	inactive: 9.57%
Cc1nnc(NC(=O)c2cccn(Cc3ccccc3F)c2=O)s1	inactive: 13.7%
S=C(SSC(=S)N1CCCCC1)N1CCCCC1	inactive: -6.86%
CC[N+]1(CC)CCC(OC(=O)C(O)(c2ccccc2)c2ccccc2)C1 (centres undefined)	inactive: -4.66%
C=CCC1([C@H](C)CCC)C(=O)NC(=O)NC1=O	inactive: -13.4% [at 116 µM]
O=c1[nH]c2ccccc2c(=O)n1-c1ccc(Cl)c(Cl)c1	inactive: 4.17%
O=C(O)c1ccc(=O)[nH]c1	inactive: -1.21%
O=C1CC(c2ccc(Br)cc2)c2c(c3ccccc3oc2=O)O1 (centres undefined)	inactive: -19.3%
Cc1sc2c(c1C)C(c1ccc(Cl)cc1)=N[C@@H](CC(=O)OC(C)(C)C)c1nnc(C)n1-2	inactive: -24.8%
CCN1CCCC1CNC(=O)C(O)(c1ccccc1)c1ccccc1 (centres undefined)	inactive: 6.08%
C[C@]12CC[C@H](O)CC1=CC[C@H]1[C@H]3CCC(=O)[C@@]3(C)CC[C@@H]12	inactive: -11.3%
C[C@@H]1CN(C2CCC(C#N)(c3ccc(F)cc3)CC2)CC[C@]1(C(=O)O)c1ccccc1 (some centres undefined)	inactive: 1.86%
C=Cc1ccc(Cn2c(C)c(CNCCc3cc(OC)ccc3OC)c(C(=O)O)c2C)cc1	inactive: 6.34%
CCC(=O)O[C@H]1CC[C@H]2[C@@H]3CCC4=CC(=O)CC[C@]4(C)[C@H]3CC[C@]12C	inactive: -6.56%
COc1cccc([C@@]2(O)CCCC[C@@H]2CN(C)C)c1	inactive: 2.77%
CO[C@]12CC[C@@]3(C[C@@H]1[C@](C)(O)C(C)(C)C)[C@@H]1Cc4ccc(O)c5c4[C@@]3(CCN1CC1CC1)[C@H]2O5	inactive: -21.2% [at 116 µM]
CCCCc1nn2c(=O)cc(COC(=O)Cc3ccccc3)nc2s1	inactive: -1.19%

SMILES	activity change, negative = inhibition
CCc1cc2c(s1)-n1c(C)nnc1CN=C2c1ccccc1Cl	inactive: 7.32%
CC(C)(C)c1ccc(C(=O)Nc2ccc(Cl)cc2C(=O)c2ccccc2)cc1	inactive: -10.1%
CC(C(O)c1ccccc1)N(C)C/C=C/c1ccccc1 (centres undefined)	inactive: -7.66%
O=C(CCCN1CCC(n2c(=O)[nH]c3ccccc32)CC1)c1ccc(F)cc1	inactive: -4.68%
CCC1(CC)C(=O)NC(=O)NC1=O	inactive: -7.75%
C[C@]12CC[C@H]3[C@@H](CCC4=CC(=O)CC[C@@H]43)[C@@H]1CC[C@@H]2OC(=O)CCC1CCCCC1	inactive: -5.56%
C[C@]12CCC(=O)C(O)=C1CC[C@@H]1[C@H]3CCC(=O)[C@@]3(C)CC[C@@H]12	inactive: -9.69%
CCCC[N+]1(C)[C@H]2CC(OC(=O)[C@H](CO)c3ccccc3)C[C@H]1[C@H]1O[C@H]12 (some centres undefined)	inactive: -2.57%
O=C(Nc1cc(C(F)(F)F)cc(C(F)(F)F)c1)c1cccn(Cc2ccccc2Cl)c1=O	inactive: -16.7%
Nc1c(Cl)c(Cl)c(Cl)c(Cl)c1Cl	inactive: -2.06% [at 116 µM]
NC(=O)OCCCc1ccccc1	inactive: -2.27%
CC(C)c1nn2c(=O)cc(COC(=O)Cc3ccccc3)nc2s1	inactive: -0.944%
N=c1c2c(-c3ccccc3)c(-c3ccccc3)n(Cc3ccccc3)c2ncn1C1CCC(O)CC1 (centres undefined)	inactive: -19.8%
OC(c1ccccc1)(c1ccccc1)C1CCNCC1	inactive: -5.39%
CC(=Cc1csc(C)n1)[C@@H]1C[C@H]2O[C@]2(C)CCC[C@H](C)[C@@H](O)[C@@H](C)C(=O)C(C)(C)[C@@H](O)CC(=O)O1	inactive: -13.5%
C[C@]12CCC(=O)C=C1CC[C@@H]1[C@@H]2CC[C@]2(C)C(=O)CC[C@@H]12	inactive: 4.55%
Clc1ccc(C(c2ccc(Cl)cc2)C(Cl)(Cl)Cl)cc1	inactive: -6.66%
Cc1ccc(NC(=O)c2cccn(Cc3ccccc3C)c2=O)c(C)c1	inactive: -21.5%
COc1cc(N)c(Cl)cc1C(=O)NC1CN2CCC1CC2 (centres undefined)	inactive: 3.82%
COc1cc(OC)c(OC)cc1C=O	inactive
Fc1cc(Br)ccc1CBr	inactive: 12.3%

From PubChem BioAssay AID1508623 (National Center for Advancing Translational Sciences (NCATS), 2021)
